Test results as given in PubChem BioAssay AID2528 (National Center for Advancing Translational Sciences (NCATS), 2010).
Hit rate of the full screen: of about 350,000 compounds, about 700 (0.2%) were called active. Inconclusive means that the source gave no clear call. Such entries were picked first, then a sample of the others. Calls follow the shape of the dose curve; as a rule, active = well fitted inhibition curve with a large enough effect; inconclusive = small, poorly fitted or top-dose-only effect; inactive = flat fitted curve, though single readings scatter. Potencies of inconclusive entries are left out as doubtful fits.

Biological target: RecQ-like DNA helicase BLM (Homo sapiens) (UniProt P54132)
Assay: qHTS Assay for Inhibitors of Bloom's syndrome helicase (BLM); also: nearly all actives have a fitted effect of over 35% in size
Conditions: recombinant BLM DNA unwinding, fluorescence dequenching; series mostly up to 56.1 µM
Potency is read from the fitted curve at half-maximal effect; tags tell the direction and shape of the fitted curve.

Sequence of UniProt P54132 (P54132 whole entry, looked up): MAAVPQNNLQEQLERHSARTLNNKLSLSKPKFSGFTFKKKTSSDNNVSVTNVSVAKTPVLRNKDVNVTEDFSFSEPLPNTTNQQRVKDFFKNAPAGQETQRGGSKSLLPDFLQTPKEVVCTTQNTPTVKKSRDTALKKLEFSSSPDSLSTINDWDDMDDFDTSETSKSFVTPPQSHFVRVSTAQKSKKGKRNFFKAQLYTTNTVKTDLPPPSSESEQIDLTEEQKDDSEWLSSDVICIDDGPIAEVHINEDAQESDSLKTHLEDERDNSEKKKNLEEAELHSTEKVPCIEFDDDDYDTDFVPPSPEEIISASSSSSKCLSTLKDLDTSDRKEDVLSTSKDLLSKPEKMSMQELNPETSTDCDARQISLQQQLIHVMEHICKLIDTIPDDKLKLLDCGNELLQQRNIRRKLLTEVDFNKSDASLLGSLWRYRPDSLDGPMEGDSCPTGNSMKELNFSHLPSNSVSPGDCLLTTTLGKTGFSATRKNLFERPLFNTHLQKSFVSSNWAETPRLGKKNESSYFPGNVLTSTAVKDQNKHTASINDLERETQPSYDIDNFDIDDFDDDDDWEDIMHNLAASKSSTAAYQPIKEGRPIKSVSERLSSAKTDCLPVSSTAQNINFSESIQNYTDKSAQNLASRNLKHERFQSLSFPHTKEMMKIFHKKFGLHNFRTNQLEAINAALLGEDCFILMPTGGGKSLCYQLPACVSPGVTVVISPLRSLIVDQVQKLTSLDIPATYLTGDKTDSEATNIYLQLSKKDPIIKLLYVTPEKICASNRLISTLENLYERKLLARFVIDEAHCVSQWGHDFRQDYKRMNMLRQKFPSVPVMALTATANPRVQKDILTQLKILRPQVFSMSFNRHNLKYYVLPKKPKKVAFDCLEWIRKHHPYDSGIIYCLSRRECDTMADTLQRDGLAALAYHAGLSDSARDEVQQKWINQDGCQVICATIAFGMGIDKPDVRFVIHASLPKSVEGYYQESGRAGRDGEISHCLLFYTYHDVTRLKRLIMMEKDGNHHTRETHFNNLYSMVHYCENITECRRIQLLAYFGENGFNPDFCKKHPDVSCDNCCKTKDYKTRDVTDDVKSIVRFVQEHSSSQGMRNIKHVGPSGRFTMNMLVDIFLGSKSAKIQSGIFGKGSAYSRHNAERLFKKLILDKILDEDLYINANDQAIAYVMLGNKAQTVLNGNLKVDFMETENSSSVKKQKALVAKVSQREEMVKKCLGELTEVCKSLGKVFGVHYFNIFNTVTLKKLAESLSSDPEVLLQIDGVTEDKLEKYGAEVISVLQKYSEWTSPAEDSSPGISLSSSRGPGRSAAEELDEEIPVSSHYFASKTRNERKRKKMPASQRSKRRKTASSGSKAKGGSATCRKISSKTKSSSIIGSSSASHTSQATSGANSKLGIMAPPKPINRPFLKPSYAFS

Compound	Potency
Cc1nnc(SCC(=O)N(Cc2ccccc2)C(C)(C)C)[nH]c1=O	inactive
O=c1[nH]c(-c2ccc(F)cc2)nc2c1sc(=S)n2-c1ccccc1	inconclusive [inhibitor, single point]
O=c1c2c3nc4ccccc4nc3n(Cc3ccccc3)c2ncn1Cc1ccco1	inconclusive [inhibitor, single point]
Cc1cc(NC(=O)CSc2nc3c(c(-c4cccnc4)c2C#N)CCC3)no1	inconclusive [inhibitor, single point]
CCOC(=O)Cn1c(=NC(=O)c2cccs2)sc2cc(C(=O)OC)ccc21	inconclusive [inhibitor, single point]
Cc1ccc(Nc2ccc(N3CCN(C(=O)c4cccc([N+](=O)[O-])c4)CC3)nn2)cc1	inactive
COc1cccc(/C=N/Nc2ncnc(Cl)c2N)c1O	inactive
CC1=C/C(=C(\c2cc(C)c(O)c(Br)c2)c2ccccc2S(=O)(=O)O)C=C(Br)C1=O	inconclusive [inhibitor, partial curve]
O=C1CC2(CCCC2)CC(=O)N1CCCCNC[C@H]1COc2ccccc2O1	inactive
S=c1[nH]nc(-c2ccc(Cl)cc2)n1/N=C/C=C/c1ccco1	inconclusive [inhibitor, single point]
CCc1ccc2nc3sc(C(=O)Nc4nnc(CC)s4)c(N)c3cc2c1	inconclusive [inhibitor, single point]
Cc1ccc(Nc2nc(/N=C/N(C)C)n[nH]2)cc1C	inactive
COc1ccc(NC(=O)/C(C#N)=C/c2ccc(Br)o2)cc1	inconclusive [inhibitor, partial curve]
CC(=O)c1sc2nc(-c3ccco3)ccc2c1N	inconclusive [inhibitor, single point]
Cc1cc(C)c(S(=O)(=O)Nc2ccc[nH]c2=O)c(C)c1	inconclusive [inhibitor, single point]
CCCn1c(-c2ccc(F)cc2)nc2c(NCCCN(CC)CC)nc(C)nc21	inactive
COc1ccc(-c2nc3ccccc3s2)cc1NC(=O)c1cccc([N+](=O)[O-])c1C	inconclusive [inhibitor, partial curve]
O=C(NCc1ccco1)c1nn2c(C(F)(F)F)cc(-c3cccs3)nc2c1Br	inconclusive [inhibitor, single point]
COc1ccc(C(CC(=O)N2CCCC2)c2c(OC)cc(OC)c3c(-c4ccccc4)cc(=O)oc23)cc1 (centres undefined)	inconclusive [inhibitor, single point]
